The supplement of paper PMC11417369
This is one part of the list.

Tested on: PF3D7_0420300 AP2 domain 1 (GST-tagged)
Assay: gcPBM binding intensity (ln(normalized median fluorescence intensity)); higher = stronger DNA binding
Summary of the method: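 The binding buffer was 1× PBS containing 1% milk, 0.2 mg/ml BSA, 0.5% salmon testes DNA and 0.03% Triton X-100. In it, GST-tagged P. falciparum DNA-binding domains expressed in E. coli were applied for 1 h to an Agilent 4 × 180k array of primer-extended double-stranded 36-bp intergenic genomic probes plus negative controls. Binding intensity, read with Alexa488 anti-GST antibody and a 488 nm scan, is the highest Masliner-normalised natural-log median intensity across replicate spots of either probe orientation.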

Sequence	gcPBM binding intensity (ln)
ATAATATAATATAAAACACACATATGTACCTTCTAA [CACACA_site2761]	9.65
TAAAAATATCTGTATACACACATATATATATATATA [CACACA_site6042]	9.37
AAAAAAAAAAAAAAAAGTACAAATCTTTATTTATTA [XGTACX_site3305]	8.75
AAAACAAATGCTTAAAGTACTTATTATTTTTCTTTT [XGTACX_site6324]	9.22
TTCCTACTATTCAAACGTACAAAATATTTAAATAAT [XGTACX_site700]	9.08
TATTATAAAACATTATGTACATATTCTGAAAAATAG [XGTACX_site6577]	9.09
CAAAATAAAAAATTCACACACATATATATATATATA [CACACA_site2088]	9.43
TATTTCTTATTTATTTTTTAAGGAAATTAAAGATTT [CACACA_negctrl_site258]	8.66
AAAAATATGCTTCCATGTACTTAAAAAAAAAATTTA [XGTACX_site3617]	8.95
ACGTTAGGCTTATTTGCACACTTGTATTAAAATTTT [CACACA_site4854]	9.49
TCAACTTGATTTATATGTACACATATAAGTAATTAT [XGTACX_site1798]	9.16
AAAAAAAATTTTCTTCTGTTGTATTTTTTATACGTT [GTGCAC_negctrl_site477]	9.39
TATACAAACTATGATGCACACATATATATATGTATA [CACACA_site8327]	9.39
AAAAAAAAGAAAAAAACACACAATGGAAAAAATGTA [CACACA_site3675]	9.73
TATTTAGAAATAAATACACACATACATTTTTGTATA [CACACA_site4557]	9.32
GTTTATTTTTTCATTTGTACACATAAATAAATATAT [XGTACX_site7752]	9.39
GGTATATATTCTATCACACATATTTCCATGAAAATA [CACACA_site4728]	9.42
TTAATTATATTATGCACACACAATTGGAAAAAAAAT [CACACA_site1958]	9.64
GAAAAACAAATATATTAACACACAAACATATAAACA [CACACA_site9315]	9.97

Sequence	gcPBM binding intensity (ln)
ATGAAAAAGTGCTGGATTCTAAAGAAAAAAAAAAAA [CACACA_negctrl_site962]	8.85
AAATATTGTTTTTTATGTACTTATTTTTATTTATTT [XGTACX_site3481]	9.48
ATAAAATCAACAAATCAGGATGTCACGTAAATATCA [CACACA_negctrl_site1009]	9.61
ATATTTTATATATTTGTGCACAATATTATAATATAT	9.19
AAAAAAAAAAAAAAAAGTACACATAATTGTATATGT [XGTACX_site6339]	9.21
TTACATATATTGGGGTGTACATATATTTTCCTTCAC [XGTACX_site6224]	9.41
AAATCATATTCTTATTTTATTTTTTTTATTTTTTAT [XGTACX_negctrl_site166]	9.46
GTTATATGAACTTATATACACACCATTTTTGTAAAT [CACACA_site695]	9.44
TGTAGATATTTTTGGGGTACTTTATAAAGAACTAGT [XGTACX_site5635]	9.1
AAAAAAATTAAATGGGGTACAATAAGGGTCAAATAT [XGTACX_site8669]	9.79
GGATAATCATACGAAGCATGCTGAATTTCCAAATAA [TGCATGCA_site1013]	9.17
TTTTATTATATATATTGTACATATATTTTTATTTTT [XGTACX_site1564]	9.35
AAAAAAAAAAATGGCTGTACATAATATTTAAATAGG [XGTACX_site4286]	9.36
ATATTTATAACTTGGTGTACTTTGAAAAAAAAAAAA [XGTACX_site5194]	8.87
AAAAAAAAAAAAAACACACATACATACATACATATA [CACACA_site4121]	9.74
ATAATTTTTTAGATCACACATATAAATAAATAAATA [CACACA_site5175]	9.1
TTATATTAGCCGATGGTGCATATATTTATAGGAAAA [GTGCAC_site9518]	8.95
ACATATTTATATGTCTGTACAAATATGCAATTTTTT [XGTACX_site5516]	9.08
TTAGATAGATTTGTACGTACTTATTATAACGTATCA [XGTACX_site5067]	8.95

Sequence	gcPBM binding intensity (ln)
AATTTATAAATAATTAATTTGATAAATTATAAAGGG [GTGCAC_negctrl_site544]	8.93
TATTTTGTATTCATTTGTCACATATAATAGATAGGA [TGCATGCA_negctrl_site9]	9.1
AATATATGTATATCCACACACATATATATATATATA [CACACA_site1633]	9.52
ATAGATATAACATATGCATGTAAAATATAACCACTC [TGCATGCA_site60]	9.55
TGTGCGGAAATAAGTGCACACATAGATATATGTATT [CACACA_site9227]	9.37
TTATACGAAGTACGTACACACACTTATATGTTACTA [CACACA_site4019]	9.63
AATAAATAGAAAGAGGTGCTACATTATATTATTTAT	9.37
TACAAAAATATATAAACACACAAATATAATATATAT [CACACA_site2942]	9.74
ATAAATCAAATGCACACACACAAAAAAAAAAAAAAA [CACACA_site6221]	9.77
TAATAAATGACAAATTAACACACATATATTATATAT [CACACA_site9294]	9.67
CGCTCTCTTTAATATTGTACATATATATTATATATA [XGTACX_site7017]	9.41
TATATATAATATTTTTCACACACCATTTCCTTAAAC [CACACA_site1341]	9.48
TGTATCTATAATAAAACACACATTTTTAATGTGCTC [CACACA_site6788]	9.23
TTTTTTTTTTTTTTTTGTACATAATAAATGTTCTTA [XGTACX_site6754]	8.64
AAAATAACATAAAAGAGTACTAAACCAAGATCAAAT [XGTACX_site7973]	9.78
TATATTTATATTCTTACATTTTTTATGTTTTTTTTT [CACACA_negctrl_site1017]	9.24
GTCATATTATTCTTTTCACACACGCGTTAATAATAA [CACACA_site9302]	9.89
TATTATAATATGTAGCGTACATTTTTTCTTTCTTTT [XGTACX_site7831]	9.18
TATAAATATATATATACACACACATACACAAAAAAA [CACACA_site9191]	10.2
